Laboratory results: the supplement of paper PMC10126150
Sequences with one replicate were seen in a single cluster, so their values are uncertain.

System: ATP
Experiment: switch fluorescence ratio, 500 uM ATP over buffer (Cy3 cluster intensity, sum of 5 cycles each) (fold (ratio)); higher = stronger signal-on switching upon ATP binding; sequences stand for … in TCGTCGGCAGCGTCAGATGTGTATAAGAGACAGTTTTTTTTTTTTTTTTTTTTTTTTT…TC
Conditions: aptamer strand: ATP DNA aptamer (quencher-CACCTGGGGGAGTATTGCGGAGGAAGG + anchor), 100 nM annealed; ATP concentration: 500 uM; one replicate
Method in brief: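 After annealing to 100 nM quencher-labelled ATP aptamer, Cy3-labelled switching-strand clusters on a modified Illumina MiSeq flow-cell were imaged in selection buffer. A second image followed after 15 min with 500 uM ATP at 22 °C, and five such buffer/ATP cycles were done, each separated by NaOH stripping and re-annealing. The fluorescence ratio, averaged per switch-domain sequence, is summed target-cycle over summed buffer-cycle Cy3 intensity per cluster, with clusters outside 100-1000 RFU excluded.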
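Also: ATP exposure 15 min at 22 °C before imaging.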

GGCGCTTTAA showed a switch fluorescence ratio of 1.05.

In the case of ATAGGAATAC, the switch fluorescence ratio is reported as 3.85.

In the case of TCGAGCACGA, the switch fluorescence ratio is reported as 1.09.

GTGTCACGTT was tested, and the switch fluorescence ratio was 0.977.

In the case of AATTGAGCCG, the switch fluorescence ratio is reported as 1.03.

With ATGATAATAT the switch fluorescence ratio was 0.997.

In the case of CTTTATCGGG, the switch fluorescence ratio is reported as 0.956.

Work on ATGTTAGAGC yielded a switch fluorescence ratio of 1.01.

Sequence GCCCCGACCT has a switch fluorescence ratio of 1.19.

GTGTATGCGG showed a switch fluorescence ratio of 1.07.

Sequence CGGAAGGCGT has a switch fluorescence ratio of 0.947.

GCAGTCCCGA gave a switch fluorescence ratio of 1.04.

Sequence GACACAATTA has a switch fluorescence ratio of 1.18.

Work on CAGCGATTAG yielded a switch fluorescence ratio of 1.08.

ATGGCTAAGT showed a switch fluorescence ratio of 1.04.

CATCTGTGGC was tested, and the switch fluorescence ratio was 1.2.

In the case of CGCGGGGATG, the switch fluorescence ratio is reported as 1.01.

AGAGGTCAAG gave a switch fluorescence ratio of 1.01.

With CGCCTAGCGG the switch fluorescence ratio was 0.962.

In the case of GTTGAGGTTG, the switch fluorescence ratio is reported as 0.975.

With AAGCCTGCTT the switch fluorescence ratio was 0.974.

TCGCACGATA showed a switch fluorescence ratio of 1.09.

GGTAGCTCGA gave a switch fluorescence ratio of 1.03.

Sequence GGGTACGGAG has a switch fluorescence ratio of 1.01.

With CCGCAGAGAT the switch fluorescence ratio was 4.92.

AAACAGCCCA showed a switch fluorescence ratio of 0.972.

For GCAGAACTTC, the switch fluorescence ratio was 1.02.

TGAGAAGTCT gave a switch fluorescence ratio of 0.974.

ATGGGAGTCA was tested, and the switch fluorescence ratio was 0.973.

CCTAGCGTTT gave a switch fluorescence ratio of 1.08.

Work on ACGTTAGTGA yielded a switch fluorescence ratio of 0.97.

With CGGTATTATT the switch fluorescence ratio was 0.992.

In the case of AAAATCAGGG, the switch fluorescence ratio is reported as 1.03.

ATCTACAGTT gave a switch fluorescence ratio of 1.02.

For TGCATAGGAT, the switch fluorescence ratio was 0.986.

CTCAGTTCAG showed a switch fluorescence ratio of 0.987.

With CAGGAGGCCA the switch fluorescence ratio was 1.03.

For AATAAAGTAA, the switch fluorescence ratio was 0.976.

TAGGTCTGAG showed a switch fluorescence ratio of 0.969.

With AATGCTCGCG the switch fluorescence ratio was 1.01.

AACAATTTAG gave a switch fluorescence ratio of 1.02.

In the case of AATCAAAAGG, the switch fluorescence ratio is reported as 1.17.

Work on GCAGGTGCTC yielded a switch fluorescence ratio of 1.54.

CCTTGCCATT gave a switch fluorescence ratio of 1.02.

For CAACATGTCT, the switch fluorescence ratio was 0.968.

With ATCCGGAAAT the switch fluorescence ratio was 1.08.

TTAACGCACA gave a switch fluorescence ratio of 1.77.

GCGATGGGTT showed a switch fluorescence ratio of 1.02.

GACTCTTGCT was tested, and the switch fluorescence ratio was 1.07.

For CCTTTTCTAT, the switch fluorescence ratio was 1.01.

With CTGCCGCTGC the switch fluorescence ratio was 1.69.

Sequence TCGTTCTGTC has a switch fluorescence ratio of 1.05.

For CCTCTAGGCC, the switch fluorescence ratio was 1.22.

TTAGGCGC showed a switch fluorescence ratio of 0.964.

GTTGGTCATG showed a switch fluorescence ratio of 0.976.

For CCTGAGGAAA, the switch fluorescence ratio was 0.939.

Sequence TCATTGACAG has a switch fluorescence ratio of 1.07.

GCCTATGTAA gave a switch fluorescence ratio of 1.02.

In the case of AGTAGGTCA, the switch fluorescence ratio is reported as 1.04.

Sequence GTCTATCACT has a switch fluorescence ratio of 0.991.

ATCGCTGCAA was tested, and the switch fluorescence ratio was 3.05.

Sequence ATCAAATTC has a switch fluorescence ratio of 1.04.

For TACCGGCTAG, the switch fluorescence ratio was 1.01.

Sequence GGCTCCTA has a switch fluorescence ratio of 1.03.

For AAATCCCTGT, the switch fluorescence ratio was 0.967.

In the case of CTGGTTAGAA, the switch fluorescence ratio is reported as 0.997.

For TCTGACTACG, the switch fluorescence ratio was 1.01.

For TAGCGCGGGG, the switch fluorescence ratio was 1.11.

CGCCTGGATG was tested, and the switch fluorescence ratio was 1.05.

For TATTATTGAT, the switch fluorescence ratio was 0.985.

Sequence GGGCTCTACC has a switch fluorescence ratio of 1.06.

TTCGAAGAGA gave a switch fluorescence ratio of 0.992.

In the case of CGCCTAGGAC, the switch fluorescence ratio is reported as 1.11.

Sequence GGGGACAACC has a switch fluorescence ratio of 0.991.

In the case of GCGCTCTAGA, the switch fluorescence ratio is reported as 0.917.

AGAGATGGAA gave a switch fluorescence ratio of 1.12.

With GGCAGTGGAG the switch fluorescence ratio was 0.997.

CTTCCGGGTG was tested, and the switch fluorescence ratio was 1.49.

Sequence TCGGGCGCCT has a switch fluorescence ratio of 1.23.

CCACTGGGGA was tested, and the switch fluorescence ratio was 1.

TTGTCGTGCG was tested, and the switch fluorescence ratio was 0.993.

In the case of GCACGAACGC, the switch fluorescence ratio is reported as 1.62.

With TTTCAGGAAG the switch fluorescence ratio was 0.971.

Sequence GAGACACAAG has a switch fluorescence ratio of 1.13.

TTCCTACGCC gave a switch fluorescence ratio of 2.

TGATGGTAT was tested, and the switch fluorescence ratio was 1.04.

CGTTGTTTGC showed a switch fluorescence ratio of 1.02.

CGACGTCTTT was tested, and the switch fluorescence ratio was 0.984.

GAACGCGGCA was tested, and the switch fluorescence ratio was 1.1.

AATGATACGT showed a switch fluorescence ratio of 1.01.

Sequence AACGGCGATC has a switch fluorescence ratio of 1.25.

Sequence TGCCTACATT has a switch fluorescence ratio of 1.01.

CTCGGCAAGG showed a switch fluorescence ratio of 2.53.

For TGCGTCTCGT, the switch fluorescence ratio was 0.985.

Work on AGCCCCGATG yielded a switch fluorescence ratio of 1.09.

TCGTAATTCT was tested, and the switch fluorescence ratio was 1.18.

GAGTCGCCGA was tested, and the switch fluorescence ratio was 0.966.

AAATTAGGGC showed a switch fluorescence ratio of 0.955.

AAACGCCATA was tested, and the switch fluorescence ratio was 1.07.

In the case of GCGACCCTCT, the switch fluorescence ratio is reported as 1.14.

With TTAAGATTAC the switch fluorescence ratio was 1.03.

CGACCATGT gave a switch fluorescence ratio of 0.969.

GTCGGGCT showed a switch fluorescence ratio of 0.991.

Work on GTCTTAGACT yielded a switch fluorescence ratio of 0.987.

TGAGCTTCAG showed a switch fluorescence ratio of 1.

Sequence TGGTTCGGTT has a switch fluorescence ratio of 0.987.

In the case of TACGACGTAG, the switch fluorescence ratio is reported as 0.96.

With TGGCGTAAAG the switch fluorescence ratio was 0.952.

AGTGGACTTT was tested, and the switch fluorescence ratio was 0.944.

Sequence CCGGGGTAAC has a switch fluorescence ratio of 1.38.

Sequence TGAGAACCGT has a switch fluorescence ratio of 1.01.

In the case of TGAGTTCCGT, the switch fluorescence ratio is reported as 1.05.

For CCCGCTTTGG, the switch fluorescence ratio was 1.42.

AGACCTTATG gave a switch fluorescence ratio of 0.953.

GCTGGAAGGA gave a switch fluorescence ratio of 0.985.

In the case of AAAGCGGGAC, the switch fluorescence ratio is reported as 1.8.

GGAAAGGCCG was tested, and the switch fluorescence ratio was 1.04.

For ATAGCAGTCC, the switch fluorescence ratio was 1.28.

CCCCGGGCGT gave a switch fluorescence ratio of 1.43.

For CGACTTTGAC, the switch fluorescence ratio was 1.13.

Work on AGGCAGGAAA yielded a switch fluorescence ratio of 0.993.

For TTAAGATATG, the switch fluorescence ratio was 1.06.

In the case of AGCACCAGTA, the switch fluorescence ratio is reported as 1.

Work on GAAGCTATTG yielded a switch fluorescence ratio of 1.85.

For CAGAGGTTGA, the switch fluorescence ratio was 1.05.

GCAGGCGAAT showed a switch fluorescence ratio of 0.983.

TACATAATTT was tested, and the switch fluorescence ratio was 1.06.

CAACTATCCA gave a switch fluorescence ratio of 1.03.

For TTATTAGGG, the switch fluorescence ratio was 1.16.

Work on TTAGTTAAGC yielded a switch fluorescence ratio of 1.05.

Work on GGGAACAAGC yielded a switch fluorescence ratio of 1.02.

In the case of TTAAATTCG, the switch fluorescence ratio is reported as 1.02.

For ACGTCAGTCT, the switch fluorescence ratio was 0.999.

Work on GCAGACGCGA yielded a switch fluorescence ratio of 1.62.

For CGGGACAACC, the switch fluorescence ratio was 1.04.

With GCAGCACCTA the switch fluorescence ratio was 1.

TTTAAAGAGC gave a switch fluorescence ratio of 0.956.

Sequence AAGGGGCTCG has a switch fluorescence ratio of 0.951.

Work on TCGAGGAGGG yielded a switch fluorescence ratio of 0.962.

Work on GATAAATACC yielded a switch fluorescence ratio of 0.98.

With TGATGCCGT the switch fluorescence ratio was 0.963.

Work on GGTCGGCACG yielded a switch fluorescence ratio of 0.992.

With GTCATCTTG the switch fluorescence ratio was 0.951.

For AAATCCATGG, the switch fluorescence ratio was 0.999.

GAAAACAAGG gave a switch fluorescence ratio of 1.07.

Work on GTTGAATGGT yielded a switch fluorescence ratio of 1.

Work on CCCGGGGTAA yielded a switch fluorescence ratio of 0.997.

Work on TCCTTCAGCA yielded a switch fluorescence ratio of 3.21.

GTTGAAGTT showed a switch fluorescence ratio of 0.997.

CTGGAGCGGC was tested, and the switch fluorescence ratio was 1.75.

TACATGGGTC was tested, and the switch fluorescence ratio was 0.96.

GTGTGACTGC showed a switch fluorescence ratio of 1.03.

GGTCAAGATC showed a switch fluorescence ratio of 1.01.

CTTTTATAGG gave a switch fluorescence ratio of 1.01.

In the case of TCACACCCA, the switch fluorescence ratio is reported as 1.28.

GCGGGGACTA showed a switch fluorescence ratio of 0.988.

TAGCTCTTTC was tested, and the switch fluorescence ratio was 1.06.
